# Measurements as given in PubChem BioAssay AID434955 (Southern Research Specialized Biocontainment Screening …, 2010).
# The other results are listed elsewhere or left out. Shown are side measurements of this screen, not its main read-out; they come without a call. Compounds called inactive in the main read-out are mostly missing here.
# Assay: beta-lactam sensitization of Mtb H37Rv, H37Rv (AID 434955);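 note: growth measured after seven days incubation then overnight dye step; 0% = bacteria only wells and 100% = bacteria with antibiotic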
# Conditions: M. tuberculosis H37Rv growth with meropenem, percent inhibition; measured here: primary screen without meropenem; at 25 µM
row,Compound,inhibition [%]
1,COc1ccccc1OCC(=O)NNC(=O)C(=O)N1CCCC1,-9.5
2,CCCc1nn2c(=O)cc(COc3cccc(NC(=O)c4ccco4)c3)nc2s1,-1.24
3,O=C(CSc1nnc2c3ccccc3c3ccccc3c2n1)Nc1ccccc1,5.58
4,CSc1ccccc1OCc1cc(C(=O)N2CCNC(=O)C2)no1,-3.48
5,COCCN1C=C(C(=O)OC)C(c2ccccc2C(F)(F)F)C(C(=O)OC)=C1,39.1
6,CC(C)(C)NC(=O)CSc1nc2ccc(NC(=O)CSc3nnc(N)s3)cc2s1,-4.51
7,CC(=O)c1ccc(OCc2ccc(Oc3c(Cl)cccc3[N+](=O)[O-])cc2)cc1,17.9
8,CSc1ccccc1OCc1cc(C(=O)NCCn2ccnc2C)no1,-7.72
9,CCn1c(SCc2ccccc2)nnc1-c1ccc(S(=O)(=O)N2CCCCC2)cc1,-10.4
10,Cc1cccc(C)c1NC(=O)NC1CCc2ccccc21 (configuration not stated),5.5
11,Cc1cc(C)cc(C(=O)OCC(=O)Nc2cccc(S(=O)(=O)NC3=NCCCCC3)c2)c1,7.45
12,O=C(COc1ccc(/C=N/NC(=O)c2cccnc2)cc1)Nc1ccccc1,0.52
13,O=C(O)/C=C\C(=O)Nc1ccccc1C#Cc1ccc(Br)cc1,-3.09
14,COc1ccc(OC)c(NC(=O)CS(=O)(=O)c2ccccc2)c1,23.8
15,O=C(O)COc1ccc(/C=N/Nc2nc(Nc3ccccc3)nc(N3CCCCC3)n2)cc1,23.6
16,CN(C)c1ccc(/C=N/NC(N)=S)cc1[N+](=O)[O-],2.95
17,CC(C)[C@H](NC(=O)C1CCN(C(=O)[C@H](Cc2ccccc2)NC(=O)OC(C)(C)C)CC1)C(=O)O,1.16
18,Nc1ccc(-c2nc(-c3ccccc3)nc3ccccc23)cc1,3.29
19,COc1ccc(C(=O)Nc2ccccc2C(=O)NCc2cccnc2)cc1,0.14
20,CCNC(=O)CCn1nc(-c2ccc(Cl)cc2)c2ccccc2c1=O,41.8
21,COc1ccc(C(=O)N(C)Cc2ccon2)cc1OC1CCN(C(C)C)CC1,-1.08
22,O=C(CSc1nnc(CNC(=O)c2ccc(F)cc2)o1)NCCc1ccccc1,1.96
23,CCN(Cc1ccccc1)S(=O)(=O)c1cn(C)cn1,-14.4

row,Compound,inhibition [%]
1,Cc1c2c(nc3c(C(=O)NC4CCCC4)cnn13)CCCC2,16
2,COc1ccc(CCNC(=O)c2ccc(N3CCCC3=O)cc2)cc1OC,-0.65
3,CC(C)N(Cc1ccccc1)C(=O)c1ccc2c(c1)OCO2,-2.55
4,COc1ccccc1NC(=O)CCn1cccc1,-5.04
5,CCCCn1c(N)c(-c2nc3ccccc3s2)c2c([N+](=O)[O-])nn(CC)c(=O)c21,15.8
6,CC(=O)c1ccc(OCCCC(=O)OCC(=O)N2CCN(c3ccccc3)CC2)cc1,37.1
7,COC(=O)c1cc(NC(=O)C2COc3ccccc3O2)cc(C(=O)OC)c1 (configuration not stated),-0.63
8,CCOC(=O)C1CCN(S(=O)(=O)c2ccc(NC(=O)c3ccco3)cc2)CC1,-9.46
9,CCOC(=O)CSc1nc2c(c(=O)n(C)c(=O)n2C)n1Cc1ccccc1F,-8.75
10,CSc1nc(SC)c2c3c(oc2n1)COC(C)(C)C3,5.16
11,O=C(Nc1cc(C(F)(F)F)ccc1N1CCOCC1)c1cccnc1,-0.34
12,CC1(C)CC(=O)C2=C(C1)NC(=O)C21C(C(=O)OC(C)(C)C)=C(N)Oc2ccc(Br)cc21 (configuration not stated),1.24
13,COc1ccc(OC)c(NC(=O)CSC2=C(C#N)C(c3ccco3)C3=C(CCCC3=O)N2)c1 (configuration not stated),27.5
14,CCOc1ccc(-n2nc(C(=O)N3CCN(CC)CC3)c3ccccc3c2=O)cc1,-6.07
15,CC(=O)N1CCc2c(sc(NC(=O)CCS(=O)(=O)c3ccccc3)c2C(N)=O)C1,-1.86
16,COc1cc(NC(=O)CN(c2ccc(C)cc2)S(=O)(=O)c2c(C)nn(C)c2C)cc(OC)c1,-9.06
17,CCn1nc(C)c(NC(=O)c2cc(Br)ccc2Cl)c1C,1.01
18,CCOc1ccccc1/C=C/c1onc(C)c1S(=O)(=O)N1CCC(C(=O)NC)CC1,-13.2
19,O=C(Nc1cccc(-c2nc3ncccc3o2)c1)c1sc2ccccc2c1Cl,5.82
20,CC(C)(O)C#Cc1ccc(CN2CCCC(CNC(=O)c3ccco3)C2)cc1 (configuration not stated),-1.07
21,Cn1ncc(Br)c1C(=O)N1CCCC1,-4.55
22,CC(NC(=O)c1ccc(Br)cc1)c1ccc2c(c1)CCCC2 (configuration not stated),1.68
23,CCOC(=O)c1cnc(NCc2ccccc2)nc1C,16.2

row,Compound,inhibition [%]
1,CS(=O)(=O)N(CC(=O)Nc1ccccc1C(=O)NCc1ccco1)c1ccc2c(c1)OCCO2,-8.4
2,Cc1cccc(NC(=O)c2ccc(C3SCC(=O)N3CCc3ccccc3)cc2)c1C (configuration not stated),2.16
3,COc1cc(C(Nc2ccccn2)c2ccc3ccc(C)nc3c2O)cc(OC)c1O (configuration not stated),-1.6
4,O=C1CSC(c2ccccn2)N1c1cccc(Cl)c1 (configuration not stated),-5.69
5,CN(CCC1CCOCC1)C(=O)CC1C(=O)NCCN1Cc1c(F)cccc1Cl (configuration not stated),-3.18
6,Cc1cc(C)cc(-n2c(C)c3c(C)nnc(C)c3c2C)c1,97.1
7,COC(=O)CSc1nnc(NC(=O)c2ccc3c(c2)OCO3)s1,56.1
8,CCOC(=O)N1CCC(N2C(=O)c3ccccc3C2Nc2ccc3c(c2)OCCO3)CC1 (configuration not stated),-3.61
9,Cc1cc2[nH]c(=O)c(=O)[nH]c2cc1S(=O)(=O)Nc1cccc(Cl)c1C,-8.05
10,Cn1cc(C(=O)N/N=C/C(Br)=C/c2ccccc2)ccc1=O,1.84
11,CCOC(=O)N1CCN(c2nc(-c3ccccc3)c3cc(C)ccc3n2)CC1,9.53
12,O=c1[nH]c(CN(CCO)CCO)nc2c1C1(CCCCC1)Cc1ccccc1-2,35
13,COCCOC1CCN(C(=O)c2cc(COc3ccc(F)cc3F)on2)CC1,3.82
14,CCOC(=O)c1ccc2c(c1)nc(SCC(=O)c1cc3ccccc3o1)n2CC,-2.07
15,Cc1c(C(=O)OC2CCC(C)CC2)[nH]c2c1C(=O)CCC2 (configuration not stated),5.48
16,CCOc1cc(/C=N\Nc2ccc([N+](=O)[O-])cc2)ccc1OCC(=O)Nc1ccc(C)c(C)c1,39
17,Cc1cc(C(F)F)nn1CC(=O)NC1CCCC1,1.97
18,CCCCCCn1c(COc2ccccc2F)nnc1SCC(=O)N1c2ccccc2NC(=O)C1(C)C,6.48
19,Cc1onc(-c2ccccc2Cl)c1C(=O)NCc1ccc2c(c1)cc(C)n2C,38.6
20,CC(C)Oc1ccc(C2c3c(oc4ccccc4c3=O)C(=O)N2CCCN2CCOCC2)cc1 (configuration not stated),-5.07
21,CCOC(=O)C(=CNc1ccc2c(c1)c1ccccc1n2CC)C(=O)OCC,27.7
